Reference: PMC9000059
Results are given in words; binding and its absence hold for the method and conditions named. In cells and extracts the contact can be indirect. Some entries that bind do so weakly or less than the wild type.

Protein sequences, listed by entry. Tags and fused reporters are not part of them. Residues count along the entry.
UniProt P56726, residues 33-793: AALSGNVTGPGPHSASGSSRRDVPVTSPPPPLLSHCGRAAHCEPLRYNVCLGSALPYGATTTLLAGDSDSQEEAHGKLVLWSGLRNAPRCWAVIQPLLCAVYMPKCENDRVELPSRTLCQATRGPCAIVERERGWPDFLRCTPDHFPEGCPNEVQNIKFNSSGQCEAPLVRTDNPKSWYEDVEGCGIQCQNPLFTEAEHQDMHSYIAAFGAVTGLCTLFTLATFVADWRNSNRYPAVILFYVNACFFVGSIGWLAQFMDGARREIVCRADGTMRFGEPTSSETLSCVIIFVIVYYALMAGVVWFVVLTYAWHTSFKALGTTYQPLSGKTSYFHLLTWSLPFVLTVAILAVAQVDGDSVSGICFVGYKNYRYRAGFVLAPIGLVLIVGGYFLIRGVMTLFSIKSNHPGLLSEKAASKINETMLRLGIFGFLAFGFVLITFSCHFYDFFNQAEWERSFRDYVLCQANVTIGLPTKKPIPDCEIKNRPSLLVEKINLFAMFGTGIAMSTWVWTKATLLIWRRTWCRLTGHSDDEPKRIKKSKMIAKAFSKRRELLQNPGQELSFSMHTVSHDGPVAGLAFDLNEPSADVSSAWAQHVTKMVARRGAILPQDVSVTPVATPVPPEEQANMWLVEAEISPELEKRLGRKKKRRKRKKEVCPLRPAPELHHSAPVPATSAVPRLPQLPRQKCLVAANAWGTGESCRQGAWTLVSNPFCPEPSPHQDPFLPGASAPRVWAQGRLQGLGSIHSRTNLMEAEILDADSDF
UniProt Q9R0Q3, residues 21-201: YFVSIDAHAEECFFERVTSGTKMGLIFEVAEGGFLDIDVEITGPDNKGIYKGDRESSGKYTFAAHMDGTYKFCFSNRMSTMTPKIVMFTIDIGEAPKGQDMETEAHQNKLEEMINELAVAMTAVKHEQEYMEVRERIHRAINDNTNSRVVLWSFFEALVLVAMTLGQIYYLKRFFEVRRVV
UniProt Q15363, residues 21-201: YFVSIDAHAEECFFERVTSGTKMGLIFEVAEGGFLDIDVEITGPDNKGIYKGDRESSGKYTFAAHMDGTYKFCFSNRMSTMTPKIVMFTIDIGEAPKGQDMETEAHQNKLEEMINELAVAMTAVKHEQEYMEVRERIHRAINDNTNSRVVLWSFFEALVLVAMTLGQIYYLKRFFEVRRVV

Assays:
[1] = molecular target: carboxyl-terminally hemagglutinin (HA) epitope tagged SMO protein (SMO–HA) (mouse) (UniProt P56726); assay: co-IP; extracts of mouse ESC clones expressing SMO–HA; membrane lysis buffer (50 mM Tris-HCl pH 7.5, 1 mM β-mercaptoethanol, 150 mM NaCl, 1% ChAPS); anti-HA affinity matrix, 1 hour; blot for endogenous TMED2 and TMED10
[2] = molecular target: N-terminally tagged SMO (HA–SMO) (mouse) (UniProt P56726); assay: co-IP; extracts of NPCs derived from ESCs expressing SMO–HA or HA–SMO, without SHH; membrane lysis buffer with 1% ChAPS; anti-HA affinity matrix, 1 hour; blot for endogenous TMED2
[3] = molecular target: carboxyl-terminally hemagglutinin (HA) epitope tagged SMO protein (SMO–HA) (mouse) (UniProt P56726); assay: as above
[4] = molecular target: N-terminally tagged SMO (HA–SMO) (mouse) (UniProt P56726); assay: co-IP; extracts of NPCs expressing HA–SMO or SMO–HA, cells treated with recombinant SHH for the indicated times (from 1 hour); membrane lysis buffer with 1% ChAPS; anti-HA affinity matrix; blot for endogenous TMED2
[5] = molecular target: carboxyl-terminally hemagglutinin (HA) epitope tagged SMO protein (SMO–HA) (mouse) (UniProt P56726); assay: as above
[6] = molecular target: N-terminally tagged SMO (HA–SMO) (mouse) (UniProt P56726); assay: condition: only NPCs treated with recombinant SHH (as early as 1 hour); co-IP; extracts of NPCs expressing HA–SMO or SMO–HA, cells treated with recombinant SHH for the indicated times (from 1 hour); membrane lysis buffer with 1% ChAPS; anti-HA affinity matrix; blot for endogenous TMED2
[7] = molecular target: SMO–HA transfected in 293T cells (mouse) (UniProt P56726); assay: co-IP; 293T cells transfected with SMO–HA or FZD2-HA; HA immunopurification; blot for endogenous TMED2

Row | Molecule | binding [1] | binding [2] | binding [3] | binding [4] | binding [5] | binding [6] | binding [7]
1 | TMED2 (endogenous, mouse) (from UniProt Q9R0Q3 21-201) | binds | binds | binds | binds weakly | no binding (condition: NPCs treated with recombinant SHH) | no binding | 
2 | TMED2 (endogenous, 293T cells) (from UniProt Q15363 21-201) |  |  |  |  |  |  | binds
3 | TMED10 (endogenous, mouse) (protein, UniProt Q9D1D4 32-219) ISFHLPVNSRKCLREEIHKDLLVTGAYEITDQSGGAGGLRTHLKITDSAGHILYAKEDATKGKFAFTTEDYDMFEVCFESKGTGRIPDQLVILDMKHGVEAKNYEEIAKVEKLKPLEVELRRLEDLSESIVNDFAYMKKREEEMRDTNESTNTRVLYFSIFSMFCLIGLATWQVFYLRRFFKAKKLIE | no binding |  |  |  |  |  | 
